B1: mAb 0012-(HC-L5-TF)2;LC2 (other)
heavy chain-linker-TF: EVKLLESGGGLVQPGGSLKLSCAASGFDFSRYWMTWVRQAPGKGLEWIGEINPDSSTINYTPSLKDKFIISRDNAKNTLYLQMSEVRSEDTALYYCASGVFTSWGQGTLVTVSAASTKGPSVFPLAPCSRSTSESTAALGCLVKDYFPEPVTVSWNSGALTSGVHTFPAVLQSSGLYSLSSVVTVPSSSLGTKTYTCNVDHKPSNTKVDKRV[human IgG4 Fc with S228P (EU numbers) omitted]GGGGSGSGGGGSGGGGSGGGGSSGTTNTVAAYNLTWKSTNFKTILEWEPKPVNQVYTVQISTKSGDWKSKCFYTTDTECDLTDEIVKDVKQTYLARVFSYPAGNVESTGSAGEPLYENSPEFTPYLETNLGQPTIQSFEQVGTKVNVTVEDERTLVRRNNTFLSLRDVFGKDLIYTLYYWKSSSSGKKTAKTNTNEFLIDVDKGENYCFSVQAVIPSRTVNRKSTDSPVECMGQEKGEFRE
light chain: DVVMTQTPLSLPVSLGDQASISCRSSQSLVHRNGNTYFHWCLQKPGQSPKLLIYKVSNRFSGVPDRFSGSGSGTDFTLKISRVEAEDLGVYFCSQSTHVPYTFGGGTKLEIKRTVAAPSVFIFPPSDEQLKSGTASVVCLLNNFYPREAKVQWKVDNALQSGNSQESVTEQDSKDSTYSLSSTLTLSKADYEKHKVYACEVTHQGLSSPVTKSFNRGEC
B2: mAb 0012-(HC-L7-TF)2;LC2 (other)
heavy chain-linker-TF: EVKLLESGGGLVQPGGSLKLSCAASGFDFSRYWMTWVRQAPGKGLEWIGEINPDSSTINYTPSLKDKFIISRDNAKNTLYLQMSEVRSEDTALYYCASGVFTSWGQGTLVTVSAASTKGPSVFPLAPCSRSTSESTAALGCLVKDYFPEPVTVSWNSGALTSGVHTFPAVLQSSGLYSLSSVVTVPSSSLGTKTYTCNVDHKPSNTKVDKRV[human IgG4 Fc with S228P (EU numbers) omitted]GGGGSGGGGSGGGGSGSGGGGSGGGGSGGGGSSGTTNTVAAYNLTWKSTNFKTILEWEPKPVNQVYTVQISTKSGDWKSKCFYTTDTECDLTDEIVKDVKQTYLARVFSYPAGNVESTGSAGEPLYENSPEFTPYLETNLGQPTIQSFEQVGTKVNVTVEDERTLVRRNNTFLSLRDVFGKDLIYTLYYWKSSSSGKKTAKTNTNEFLIDVDKGENYCFSVQAVIPSRTVNRKSTDSPVECMGQEKGEFRE
light chain: B1 light chain
B3: mAb 0012-(HC-L6-TF)2;LC2 (other)
heavy chain-linker-TF: EVKLLESGGGLVQPGGSLKLSCAASGFDFSRYWMTWVRQAPGKGLEWIGEINPDSSTINYTPSLKDKFIISRDNAKNTLYLQMSEVRSEDTALYYCASGVFTSWGQGTLVTVSAASTKGPSVFPLAPCSRSTSESTAALGCLVKDYFPEPVTVSWNSGALTSGVHTFPAVLQSSGLYSLSSVVTVPSSSLGTKTYTCNVDHKPSNTKVDKRV[human IgG4 Fc with S228P (EU numbers) omitted]GGGGSGGGGSGSGGGGSGGGGSGGGGSSGTTNTVAAYNLTWKSTNFKTILEWEPKPVNQVYTVQISTKSGDWKSKCFYTTDTECDLTDEIVKDVKQTYLARVFSYPAGNVESTGSAGEPLYENSPEFTPYLETNLGQPTIQSFEQVGTKVNVTVEDERTLVRRNNTFLSLRDVFGKDLIYTLYYWKSSSSGKKTAKTNTNEFLIDVDKGENYCFSVQAVIPSRTVNRKSTDSPVECMGQEKGEFRE
light chain: B1 light chain

target: T1, TLT-1 receptor on the surface of activated human platelets (human, UniProt Q86YW5 16-311); test: cell-based or functional assay
T1 sequence: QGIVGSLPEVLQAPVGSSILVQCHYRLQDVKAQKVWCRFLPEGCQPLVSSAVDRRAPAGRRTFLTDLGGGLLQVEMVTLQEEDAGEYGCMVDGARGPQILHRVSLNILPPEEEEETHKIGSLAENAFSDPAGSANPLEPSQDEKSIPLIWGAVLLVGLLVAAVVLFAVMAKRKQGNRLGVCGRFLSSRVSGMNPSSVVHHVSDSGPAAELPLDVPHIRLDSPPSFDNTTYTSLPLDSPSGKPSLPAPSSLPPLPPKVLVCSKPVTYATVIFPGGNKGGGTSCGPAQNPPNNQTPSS

Going from B1 to B2, the “FVII-mediated FXa generation % Activity activated plts (n 1)” value rises from 24% to 25%.

B3 was tested, and the “FVII-mediated FXa generation % Activity activated plts (n 1)” value was 29%.

Going from B1 to B2, the “FVIIa-mediated FXa generation % Activity activated plts (n 1)” value rises from 22% to 23%.

In the case of B3, the “FVIIa-mediated FXa generation % Activity activated plts (n 1)” value is reported as 22%.

target: T2, TLT-1 18-188 relipidated in 20:80 PS:PC vesicles (human, UniProt Q86YW5 18-188); test: cell-based or functional assay
T2 sequence: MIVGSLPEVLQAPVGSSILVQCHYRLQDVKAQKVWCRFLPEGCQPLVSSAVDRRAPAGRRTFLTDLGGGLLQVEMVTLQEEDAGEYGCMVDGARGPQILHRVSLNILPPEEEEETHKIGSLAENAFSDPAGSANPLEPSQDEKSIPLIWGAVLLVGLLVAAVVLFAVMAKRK

Compared with B1, B2 is lower in “FVII-mediated FXa generation % Activity lipidated TLT-1” value: 73% for the first, 68% for the second.

B3 was tested, and the “FVII-mediated FXa generation % Activity lipidated TLT-1” value was 72%.

First: B1
Second: B2
The “FVIIa-mediated FXa generation % Activity lipidated TLT-1” value of the first is higher: 98% for the first, 93% for the second.

In the case of B3, the “FVIIa-mediated FXa generation % Activity lipidated TLT-1” value is reported as 99%.

From US20120178908A1 (Novo Nordisk, published 2012)
